# This is one part of the list. Sequences were assembled here from the parent chain. Inactive controls read about 0.05.
# B1: TEV protease; numbered along this chain (parent)
# chain: MGESLFKGPRDYNPISSSICHLTNESDGHTTSLYGIGFGPFIITNKHLFRRNNGTLVVQSLHGVFKVKDTTTLQQHLVDGRDMIIIRMPKDFPPFPQKLKFREPQREERICLVTTNFQTKSMSSMVSDTSCTFPSGDGIFWKHWIQTKDGQCGSPLVSTRDGFIVGIHSASNFTNTNNYFTSVPKNFMELLTNQEAQQWVSGWRLNADSVLWGGHKVFMVKPEEPFQPVKEATQL
# Variants of: B1
# Experiment: raw area under fraction-flipped curve 0-4 h after induction (AUC4h, not background-subtracted), DNA-recorder readout of cleavage of the substrate (dimensionless); higher = more cleavage of the substrate by the protease variant
# Conditions: temperature: 34 °C; time window: 0-4 h after rhamnose induction
# Procedure: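 In vivo DNA recorder in E. coli TOP10(DE3) ΔrhaA at 34 °C. Each TEVp single-site mutant (parent TEVp 0) is paired with a single-site variant of the 7-mer TEVs (canonical ENLYFQ|S). The substrate sits between flexible linkers in a Bxb1-sfGFP-TEVs-SsrA fusion, so cleavage stabilises Bxb1 and speeds flipping of a recombination array, read by NGS. The value is the raw area under the fraction-flipped curve over 0-4 h after rhamnose induction (AUC4h), with ≥20 reads per time point. It is not background-subtracted; inactive controls average about 0.047.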
# 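Also: Bxb1 expression induced with 0.2% (w/v) L-rhamnose at OD600 near 0.5, cultures sampled hourly, flipped fraction per protease–substrate barcode pair counted by paired-end Illumina sequencing.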
Variant,area with substrate ENLYFQC,area with substrate ENLYFQF,area with substrate ENLYFQG,area with substrate ENLYFQI,area with substrate ENLYFQL,area with substrate ENLYFQM,area with substrate ENLYFQN,area with substrate ENLYFQQ,area with substrate ENLYFQR,area with substrate ENLYFQS,area with substrate ENLYFQW,area with substrate ENLYFQD,area with substrate ENLYFQH,area with substrate ENLYFQK,area with substrate ENLYFQP,area with substrate ENLYFQT,area with substrate ENLYFQV,area with substrate ENLYFQY,area with substrate ENLYFQA,area with substrate ENLYFQE
MGESLFKGPEDYNPISSSICHLTNESDGHTTSLYGIGFGPFIITNKHLFRRNNGTLVVQSLHGVFKVKDTTTLQQHLVDGRDMIIIRMPKDFPPFPQKLKFREPQREERICLVTTNFQTKSMSSMVSDTSCTFPSGDGIFWKHWIQTKDGQCGSPLVSTRDGFIVGIHSASNFTNTNNYFTSVPKNFMELLTNQEAQQWVSGWRLNADSVLWGGHKVFMVKPEEPFQPVKEATQL [R10E],0.0979,0.0697,0.0683,0.0628,0.0618,0.0553,0.0771,0.0642,0.0651,0.0916,0.0662,,,,,,,,,
MGESLFKGPRGYNPISSSICHLTNESDGHTTSLYGIGFGPFIITNKHLFRRNNGTLVVQSLHGVFKVKDTTTLQQHLVDGRDMIIIRMPKDFPPFPQKLKFREPQREERICLVTTNFQTKSMSSMVSDTSCTFPSGDGIFWKHWIQTKDGQCGSPLVSTRDGFIVGIHSASNFTNTNNYFTSVPKNFMELLTNQEAQQWVSGWRLNADSVLWGGHKVFMVKPEEPFQPVKEATQL [D11G],0.114,,0.141,0.0678,0.064,0.116,0.0834,0.0768,0.0597,0.0993,0.062,0.0685,0.0675,0.0715,0.0701,0.0628,0.0459,0.0839,,
MGESLFKGPRNYNPISSSICHLTNESDGHTTSLYGIGFGPFIITNKHLFRRNNGTLVVQSLHGVFKVKDTTTLQQHLVDGRDMIIIRMPKDFPPFPQKLKFREPQREERICLVTTNFQTKSMSSMVSDTSCTFPSGDGIFWKHWIQTKDGQCGSPLVSTRDGFIVGIHSASNFTNTNNYFTSVPKNFMELLTNQEAQQWVSGWRLNADSVLWGGHKVFMVKPEEPFQPVKEATQL [D11N],0.127,0.0791,0.101,0.0525,0.055,0.0715,0.072,,0.0592,0.0947,0.0638,0.0672,0.0794,0.0613,0.0647,0.0653,0.0402,0.0696,,
MGESLFKGPRDYNPISSSICHLTNESDGHTTSLYGIGFGPFIITNKHLFRRNNGTLVVQSLHGVFKVKDTTTLQQHLVDGRDMIIIRMPKDFPPFPQKLKFREPQREERICLVTTNFQTKSMSSMVSDTSCTFPSGDGIFWKHWIQTKDGQCGSPLVSTRDGFIVGIHSASNFTNTNNYFTSVPKNFMELLTNQEAQQWVSGWRLNADSVLWGGHKVFMVKPEEPFQPVKQATQL [E231Q],0.0919,,0.0973,0.0554,0.0527,0.0936,0.072,,,0.102,0.0682,0.0734,0.0533,,,0.0642,,0.0741,0.107,
MGESLFKGPRDYNPISSSICLLTNESDGHTTSLYGIGFGPFIITNKHLFRRNNGTLVVQSLHGVFKVKDTTTLQQHLVDGRDMIIIRMPKDFPPFPQKLKFREPQREERICLVTTNFQTKSMSSMVSDTSCTFPSGDGIFWKHWIQTKDGQCGSPLVSTRDGFIVGIHSASNFTNTNNYFTSVPKNFMELLTNQEAQQWVSGWRLNADSVLWGGHKVFMVKPEEPFQPVKEATQL [H21L],0.085,,0.0992,0.0701,0.0613,0.0898,0.0811,,,0.0931,0.0674,0.0607,,0.0552,0.0639,0.0536,0.0595,0.106,,
MGESLFKGPRDYNPISSSICHLTNESDGHTTSLYGIGFGPFIITNKHLFRRNNGTLVVQSLHGVFKVKDTTTLQQHLVDGRDMIIIRMPKDFPPFPQKLKFREPQREERICLVTTNFQTKSMSSMVSDTSCTFPSGDGIFWKHWIQTKDGQCGSPLVSTRDGFIVGIHSASNFTNTNNYFTSVPKNFMELLTNQEAQQWVSGWRLNADSVLWGGHKVFMVKPEEPFQPVKEATLL [Q234L],0.104,0.0574,,0.0584,0.0718,,,,,0.0937,0.0389,0.0739,,0.0835,,0.069,0.0384,0.0702,0.09,
MGESLFKGPRDYNPISSSICHLTNESDGKTTSLYGIGFGPFIITNKHLFRRNNGTLVVQSLHGVFKVKDTTTLQQHLVDGRDMIIIRMPKDFPPFPQKLKFREPQREERICLVTTNFQTKSMSSMVSDTSCTFPSGDGIFWKHWIQTKDGQCGSPLVSTRDGFIVGIHSASNFTNTNNYFTSVPKNFMELLTNQEAQQWVSGWRLNADSVLWGGHKVFMVKPEEPFQPVKEATQL [H29K],0.177,,0.0881,0.0674,,,,,0.0675,0.0963,,,,,,0.0649,0.0235,,,
MGESLFKGPRDYNPISSSICHLTNESDGVTTSLYGIGFGPFIITNKHLFRRNNGTLVVQSLHGVFKVKDTTTLQQHLVDGRDMIIIRMPKDFPPFPQKLKFREPQREERICLVTTNFQTKSMSSMVSDTSCTFPSGDGIFWKHWIQTKDGQCGSPLVSTRDGFIVGIHSASNFTNTNNYFTSVPKNFMELLTNQEAQQWVSGWRLNADSVLWGGHKVFMVKPEEPFQPVKEATQL [H29V],0.108,0.0961,0.0992,0.0636,0.0676,0.121,0.0687,,0.0547,0.107,,0.0727,0.084,0.0516,0.0546,0.0617,0.0565,,,0.0582
MGESLFKGPRDYNPISSSICHLTNESDGSTTSLYGIGFGPFIITNKHLFRRNNGTLVVQSLHGVFKVKDTTTLQQHLVDGRDMIIIRMPKDFPPFPQKLKFREPQREERICLVTTNFQTKSMSSMVSDTSCTFPSGDGIFWKHWIQTKDGQCGSPLVSTRDGFIVGIHSASNFTNTNNYFTSVPKNFMELLTNQEAQQWVSGWRLNADSVLWGGHKVFMVKPEEPFQPVKEATQL [H29S],0.102,,0.0974,0.0742,0.0591,0.0962,,,0.0715,0.115,0.0665,0.0964,0.0822,0.0595,0.0587,0.0778,0.0709,0.0736,,0.0747
MGESLMKGPRDYNPISSSICHLTNESDGHTTSLYGIGFGPFIITNKHLFRRNNGTLVVQSLHGVFKVKDTTTLQQHLVDGRDMIIIRMPKDFPPFPQKLKFREPQREERICLVTTNFQTKSMSSMVSDTSCTFPSGDGIFWKHWIQTKDGQCGSPLVSTRDGFIVGIHSASNFTNTNNYFTSVPKNFMELLTNQEAQQWVSGWRLNADSVLWGGHKVFMVKPEEPFQPVKEATQL [F6M],0.119,0.0669,0.118,0.0709,0.0456,0.0942,0.072,,0.0577,0.102,,,,0.0654,0.0531,0.0891,,0.0832,,
MGESLFKGPRDYNPISSSICHNTNESDGHTTSLYGIGFGPFIITNKHLFRRNNGTLVVQSLHGVFKVKDTTTLQQHLVDGRDMIIIRMPKDFPPFPQKLKFREPQREERICLVTTNFQTKSMSSMVSDTSCTFPSGDGIFWKHWIQTKDGQCGSPLVSTRDGFIVGIHSASNFTNTNNYFTSVPKNFMELLTNQEAQQWVSGWRLNADSVLWGGHKVFMVKPEEPFQPVKEATQL [L22N],0.0402,,0.0808,0.0502,,,0.032,0.064,0.0651,0.0499,,,0.0493,0.0208,0.0407,0.0484,0.062,,,0.0469
MGESLFKGPRDYNPHSSSICHLTNESDGHTTSLYGIGFGPFIITNKHLFRRNNGTLVVQSLHGVFKVKDTTTLQQHLVDGRDMIIIRMPKDFPPFPQKLKFREPQREERICLVTTNFQTKSMSSMVSDTSCTFPSGDGIFWKHWIQTKDGQCGSPLVSTRDGFIVGIHSASNFTNTNNYFTSVPKNFMELLTNQEAQQWVSGWRLNADSVLWGGHKVFMVKPEEPFQPVKEATQL [I15H],0.115,,0.121,0.0628,0.0577,0.1,0.076,0.0736,0.0605,0.102,0.0701,,0.0705,0.0665,0.0495,0.0649,,,,
MGESLFKGPRDYYPISSSICHLTNESDGHTTSLYGIGFGPFIITNKHLFRRNNGTLVVQSLHGVFKVKDTTTLQQHLVDGRDMIIIRMPKDFPPFPQKLKFREPQREERICLVTTNFQTKSMSSMVSDTSCTFPSGDGIFWKHWIQTKDGQCGSPLVSTRDGFIVGIHSASNFTNTNNYFTSVPKNFMELLTNQEAQQWVSGWRLNADSVLWGGHKVFMVKPEEPFQPVKEATQL [N13Y],0.1,,0.112,0.0503,,,0.0738,0.0733,0.0509,0.0988,0.0666,0.0709,,0.0604,,0.0635,0.0663,0.114,,
MGESLFKGPRDYNPISSWICHLTNESDGHTTSLYGIGFGPFIITNKHLFRRNNGTLVVQSLHGVFKVKDTTTLQQHLVDGRDMIIIRMPKDFPPFPQKLKFREPQREERICLVTTNFQTKSMSSMVSDTSCTFPSGDGIFWKHWIQTKDGQCGSPLVSTRDGFIVGIHSASNFTNTNNYFTSVPKNFMELLTNQEAQQWVSGWRLNADSVLWGGHKVFMVKPEEPFQPVKEATQL [S18W],0.0771,,,0.0569,0.0585,0.107,,,0.074,0.0748,0.0564,,,0.0599,0.0713,0.0593,0.0664,,,
MGESLFKGPRDYNPISSSICHLTNESDGHTTSLYGIGFGPFIITNKHLFRRNNGTLVVQSLHGVFKVKDTTTLQQHLVDGRDMIIIRMPKDFPPFPQKLKFREPQREERICLVTTNFQTKSMSSMVSDTSCTFPSGDGIFWKHWIQTKDGQCGSPLVSTRDGFIVGIHSASNFTNTNNYFTSVPKNFMELLTNQEAQQWVSGWRLNADSVLWGGHKVFMVKPEEPFQPVIEATQL [K230I],,0.107,0.0894,0.0687,0.0578,0.0711,0.0758,0.023,,0.0912,,0.0818,0.0599,0.0631,,0.0618,,0.0764,0.0896,
MGESLFKGPRDYNPISSSICHLTNESDGHTTSLYGIGFGPFIITNKHLFRRNNGTLVVQSLHGVFKVKDTTTLQQHLVDGRDMIIIRMPKDFPPFPQKLKFREPQREERICLVTTNFQTKSMSSMVSDTSCTFPSGDGIFWKHWIQTKDGQCGSPLVSTRDGFIVGIHSASNFTNTNNYFTSVPKNFMELLTNQEAQQWVSGWRLNADSVLWGGHKVFMVKPEEPFQPVPEATQL [K230P],0.116,0.101,0.0707,0.061,0.0658,0.0912,0.065,,0.0501,0.105,,0.0676,0.0687,,0.027,0.0505,,,0.0959,
MGETLFKGPRDYNPISSSICHLTNESDGHTTSLYGIGFGPFIITNKHLFRRNNGTLVVQSLHGVFKVKDTTTLQQHLVDGRDMIIIRMPKDFPPFPQKLKFREPQREERICLVTTNFQTKSMSSMVSDTSCTFPSGDGIFWKHWIQTKDGQCGSPLVSTRDGFIVGIHSASNFTNTNNYFTSVPKNFMELLTNQEAQQWVSGWRLNADSVLWGGHKVFMVKPEEPFQPVKEATQL [S4T],0.16,0.116,0.107,0.061,0.0739,0.182,0.094,,0.0531,0.134,,0.0881,0.102,0.0747,,0.0689,0.0591,0.0709,,
MGESLFKGPRDYNPISSSICHLTMESDGHTTSLYGIGFGPFIITNKHLFRRNNGTLVVQSLHGVFKVKDTTTLQQHLVDGRDMIIIRMPKDFPPFPQKLKFREPQREERICLVTTNFQTKSMSSMVSDTSCTFPSGDGIFWKHWIQTKDGQCGSPLVSTRDGFIVGIHSASNFTNTNNYFTSVPKNFMELLTNQEAQQWVSGWRLNADSVLWGGHKVFMVKPEEPFQPVKEATQL [N24M],0.125,0.0774,,0.067,0.0693,0.0834,0.0846,,0.0673,0.0948,0.0725,,0.0844,0.0652,0.0606,0.0947,,,,

# Source: the supplement of paper PMC12217912
